Our source for the EC50 values is patent publication US20060160798A1, “Viral polymerase inhibitors” (Boehringer Ingelheim (Canada) Ltd., priority 2001, published 2006).

As usually defined, the EC50 is the concentration that produces a half-maximal response.

One assay concerns Huh7 cells that stably maintain a subgenomic HCV replicon (S22.3 cell-line). In words: Cell based HCV RNA replication assay (S22.3 replicon cells, real-time RT-PCR). Conditions: Hepatitis C virus, Huh-7, 72 h, S22.3 cells, 72 hours incubation, HCV RNA by RT-PCR. (In general: In antiviral work, replicon cells carry a viral genome segment that copies itself.)
`Cn1c(-c2ccccn2)c(C2CCCCC2)c2ccc(C(=O)NC(C)(C)C(=O)Nc3ccc(N)cc3)cc21` [Entry 2072, 3-Cyclohexyl-1-methyl-2-pyridin-2-yl-1H-indole-6-carboxylic acid[1-(4-amino-phenylcarbamoyl)-1-methyl-ethyl]-amide] displayed an EC50 below 500 nM.

`CC(C)(NC(=O)c1ccc2c(C3CCCCC3)c(-c3ccoc3)[nH]c2c1)C(=O)Nc1ccc(/C=C/C(=O)O)cc1` [Entry 2050, (E)-3-[4-(2-{[1-(3-Cyclohexyl-2-furan-3-yl-1H-indol-6-yl)-methanoyl]-amino}-2-methyl-propanoylamino)-phenyl]-acrylic acid] returned an EC50 below 500 nM.

On to `CCN1CCC(NC(=O)c2ccc3c(C4CCCCC4)c(-c4ccccn4)n(C)c3c2)(C(=O)Nc2ccc3c(c2)cc(C(=O)O)n3C)CC1` [Entry 2092], for which the EC50 was below 500 nM.

The compound `O=C(NC1(C(=O)Nc2ccc(-c3ccc(C(=O)O)o3)cc2)CCCC1)c1ccc2c(C3CCCCC3)c(-c3ccoc3)[nH]c2c1` [Entry 2048] registered an EC50 below 500 nM.

In turn, `CCN1CCC(NC(=O)c2ccc3c(C4CCCCC4)c(-c4ccoc4)[nH]c3c2)(C(=O)Nc2ccc(CCC(N)=O)cc2)CC1` [Entry 2100] came in with an EC50 below 500 nM.

`CN1CC[C@@](NC(=O)c2ccc3c(C4CCCCC4)c(-c4ccccn4)n(C)c3c2)(C(=O)Nc2ccc(/C=C/C(=O)O)cc2)C1` [Entry 2116] came in with a concentration for a half-maximal effect (EC50) below 500 nM.

`O=C(O)/C=C/c1ccc(NC(=O)C2(NC(=O)c3ccc4c(C5CCCC5)c(-c5ccccn5)sc4c3)CCC2)cc1` [Entry 8001] returned an EC50 of 500 to 5000 nM.

For `CN(C)CCC(NC(=O)c1ccc2c(C3CCCC3)c(-c3ccccn3)n(C)c2c1)c1nc2ccc(C=CC(=O)O)cc2[nH]1` (stereo not drawn) [Entry 1025], the EC50 is 500 to 5000 nM.

The compound `C=CCn1c(C(=O)O)cc2cc(NC(=O)[C@@H](C)NC(=O)c3ccc4c(C5CCCCC5)c(-c5ccoc5)[nH]c4c3)ccc21` [Entry 2011] showed an EC50 of 500 to 5000 nM.

In turn, `CC(=O)Nc1ccc(-c2c(C3CCCC3)c3ccc(C(=O)NC(C)(C)C(=O)Nc4cccc5c4cc(C(=O)O)n5C)cc3n2C)cc1C` [Entry 1006] yielded an EC50 below 500 nM.

As to `NC(=O)/C=C/c1ccc(NC(=O)C2(NC(=O)c3ccc4c(C5CCCCC5)c(-c5ccoc5)[nH]c4c3)CCCC2)cc1` [Entry 2060], the EC50 is below 500 nM.

In turn, `Cn1c(C(=O)O)cc2cc(NC(=O)C(C)(C)NC(=O)c3ccc4c(C5CCCCC5)c(-c5ccccn5)n(C)c4c3)ccc21` [Entry 2093] yielded an EC50 below 500 nM.

Turning to `Cn1c(-c2ccoc2)c(C2CCCCC2)c2ccc(C(=O)NC(C)(C)C(=O)Nc3ccc(/C=C/C(=O)O)cc3)cc21` [Entry 2051], the EC50 is below 500 nM.

As for `Cn1c(-c2ccccn2)c(C2CCCCC2)c2ccc(C(=O)NC(C)(C)C(=O)Nc3ccc(NC(=O)C(N)=O)cc3)cc21` [Entry 2077], the EC50 is below 500 nM.

On to `Cn1c(-c2ccccn2)c(C2CCCC2)c2ccc(C(=O)NC(C)(C)/C=C/c3ccc(/C=C/C(=O)O)cc3)cc21` [Entry 1016], for which the EC50 is below 500 nM.

Consider `O=C(N[C@@H](Cc1c[nH]c2ccc(O)cc12)c1cscn1)c1ccc2c(C3CCCCC3)c(-c3ccccn3)[nH]c2c1` [Entry 1003], for which the EC50 lay within 500 to 5000 nM.

The compound `Cn1c(-c2cccc([N+](=O)[O-])c2)c(C2CCCCC2)c2ccc(C(=O)NC(C)(C)C(=O)Nc3ccc(/C=C/C(=O)O)cc3)cc21` [Entry 2102] returned an EC50 below 500 nM.

Take `CC(C)(NC(=O)c1ccc2c(C3CCCCC3)c(-c3ccccn3)[nH]c2c1)C(=O)Nc1ccc(/C=C/C(=O)O)cc1` [Entry 2089]: the EC50 is below 500 nM.

`O=C(O)/C=C/c1ccc(NC(=O)C2(NC(=O)c3ccc4c(C5CCCCC5)c(-c5ccoc5)[nH]c4c3)CCC2)cc1` [Entry 2057] came in with an EC50 below 500 nM.

With `C[C@@H](NC(=O)c1ccc2c(C3CCCCC3)c(-c3ccoc3)[nH]c2c1)C(=O)Nc1ccc(/C=C/C(=O)O)cc1` [Entry 2004], the EC50 was below 500 nM.

Compound `CCN1CCC(NC(=O)c2ccc3c(C4CCCCC4)c(-c4ccoc4)[nH]c3c2)(C(=O)Nc2ccc(/C=C/C(N)=O)cc2)CC1` [Entry 2078] showed a concentration for a half-maximal effect (EC50) of 500 to 5000 nM.

As to `CC(C)(NC(=O)c1ccc2c(C3CCCCC3)c(-c3ccoc3)[nH]c2c1)C(=O)Nc1ccc(-c2csc(C(=O)O)n2)cc1` [Entry 2061], the EC50 was in the range of 500 to 5000 nM.

As to `O=C(O)/C=C/c1ccc(NC(=O)C2(NC(=O)c3ccc4c(C5CCCCC5)c(-c5ccoc5)[nH]c4c3)CCSCC2)cc1` [Entry 2025], the 50% effective concentration (EC50) is below 500 nM.

Staying with this assay, now noted: Hepatitis C virus, Huh-7, Table 6.
For the compound `CC(C)C(=O)Nc1nc(-c2c(C3CCCC3)c3ccc(C(=O)NC(C)(C)C(=O)Nc4ccc(/C=C/C(=O)O)cc4)cc3n2C)cs1` [Entry 6027], the EC50 was below 500 nM.

In turn, `CC(=O)Nc1nc(-c2c(C3CCCC3)c3ccc(C(=O)NC4(C(=O)Nc5ccc(/C=C/C(=O)O)cc5)CCC4)cc3n2C)cs1` [Entry 6071] gave an EC50 below 500 nM.

Regarding `C=Cc1c(C2CCCC2)c2ccc(C(=O)NC(C)(C)C(=O)Nc3ccc(/C=C/C(=O)O)cc3)cc2n1C` [Entry 6046], the EC50 is below 500 nM.

Compound `Cn1c(-c2cccc(N)n2)c(C2CCCC2)c2ccc(C(=O)NC3(C(=O)Nc4ccc(/C=C/C(=O)O)cc4)CC3)cc21` [Entry 6037] yielded an EC50 below 500 nM.

`Cn1c(-c2csc(Nc3ccncc3)n2)c(C2CCCC2)c2ccc(C(=O)NC(C)(C)C(=O)Nc3ccc(/C=C/C(=O)O)cc3)cc21` [Entry 6022] came in with an EC50 below 500 nM.

As to `CN1CCC(NC(=O)c2ccc3c(C4CCCC4)c(-c4nccs4)n(C)c3c2)(C(=O)Nc2ccc(/C=C/C(=O)O)cc2)CC1` [Entry 6101], the EC50 is below 500 nM.

Regarding `CN(C)CCNc1nc(-c2c(C3CCCC3)c3ccc(C(=O)NC4(C(=O)Nc5ccc(/C=C/C(=O)O)cc5)CCCC4)cc3n2C)cs1` [Entry 6097], the EC50 was below 500 nM.

Turning to `Cc1ccc(-c2c(C3CCCC3)c3ccc(C(=O)N[C@@]4(C(=O)Nc5ccc(/C=C/C(=O)O)cc5)CCN(C)C4)cc3n2C)cn1` [Entry 6115], the EC50 was below 500 nM.

Turning to `Cn1c(-c2ccccn2)c(C2CCCC2)c2ccc(C(=O)NC3(C(=O)Nc4ccc(/C=C/C(=O)O)cc4)CCN(S(C)(=O)=O)CC3)cc21` [Entry 6125], the EC50 was below 500 nM.

Regarding `O=C(O)/C=C/c1ccc(NC(=O)C2(NC(=O)c3ccc4c(C5CCCC5)c(-c5ccccn5)[nH]c4c3)CCC2)cc1` [Entry 6121], the EC50 was below 500 nM.

On to `Cc1ccc(-c2c(C3CCCC3)c3ccc(C(=O)NC4(C(=O)Nc5ccc(/C=C/C(=O)O)cc5)CCCC4)cc3n2C)nc1` [Entry 6060], for which the EC50 is below 500 nM.

In the case of `Cn1c(-c2ccc(Cl)cn2)c(C2CCCC2)c2ccc(C(=O)NC3(C(=O)Nc4ccc(/C=C/C(=O)O)cc4)CCCC3)cc21` [Entry 6049], the EC50 was below 500 nM.

Regarding `Cn1c(-c2ccncc2)c(C2CCCC2)c2ccc(C(=O)NC3(C(=O)Nc4ccc(/C=C/C(=O)O)cc4)CCC3)cc21` [Entry 6039], the EC50 is below 500 nM.

`CN1CCC(NC(=O)c2ccc3c(C4CCCC4)c(-c4ccsc4)n(C)c3c2)(C(=O)Nc2ccc(/C=C/C(=O)O)cc2)CC1` [Entry 6056] showed an EC50 below 500 nM.

On to `CCCNc1nc(-c2c(C3CCCC3)c3ccc(C(=O)NC4(C(=O)Nc5ccc(/C=C/C(=O)O)cc5)CCCC4)cc3n2C)cs1` [Entry 6091], for which the EC50 is below 500 nM.

In turn, `Cn1c(-c2cocn2)c(C2CCCC2)c2ccc(C(=O)NC3(C(=O)Nc4ccc(/C=C/C(=O)O)cc4)CCC3)cc21` [Entry 6083] showed an EC50 below 500 nM.

Compound `COCCNc1nc(-c2c(C3CCCC3)c3ccc(C(=O)NC4(C(=O)Nc5ccc(/C=C/C(=O)O)cc5)CCCC4)cc3n2C)cs1` [Entry 6092] yielded an EC50 below 500 nM.

The compound `COc1cccc(-c2c(C3CCCC3)c3ccc(C(=O)NC4(C(=O)Nc5ccc(/C=C/C(=O)O)cc5)CCC4)cc3n2C)n1` [Entry 6043] came in with an EC50 below 500 nM.

`CNc1nc(-c2c(C3CCCC3)c3ccc(C(=O)NC4(C(=O)Nc5ccc(/C=C/C(=O)O)cc5)CCCC4)cc3n2C)cs1` [Entry 6087] displayed an EC50 below 500 nM.

Still in this assay, the particulars now being: Hepatitis C virus, Huh-7, Table 7.
Regarding `Cn1c(-c2nccs2)c(C2CCCC2)c2ccc(C(=O)NC3(C(=O)Nc4ccc(-c5ccc(C(=O)O)o5)cc4)CCCC3)cc21` [Entry 7048], the EC50 was below 500 nM.

Regarding `Cn1c(-c2cccc(N)n2)c(C2CCCC2)c2ccc(C(=O)NC3(C(=O)Nc4ccc(-c5ccc(C(=O)O)o5)cc4)CCCC3)cc21` [Entry 7025], the EC50 is below 500 nM.

As to `C/C(=C\c1ccc(NC(=O)C2(NC(=O)c3ccc4c(C5CCCC5)c(-c5cccc(C)n5)n(C)c4c3)CCC2)cc1)C(=O)O` [Entry 7022], the EC50 is below 500 nM.

As for `Cn1c(C(=O)O)cc2cc(NC(=O)C3(NC(=O)c4ccc5c(C6CCCC6)c(-c6cccc(N)c6)n(C)c5c4)CCC3)ccc21` [Entry 7015], the EC50 was below 500 nM.

`Cc1ccc(-c2c(C3CCCC3)c3ccc(C(=O)NC4(C(=O)Nc5ccc(-c6ccc(C(=O)O)o6)cc5)CCCC4)cc3n2C)cn1` [Entry 7033] came in with a 50% effective concentration (EC50) below 500 nM.

In the case of `Cc1ccc(-c2c(C3CCCC3)c3ccc(C(=O)NC4(C(=O)Nc5ccc(-c6ccc(C(=O)O)o6)cc5)CCC4)cc3n2C)cn1` [Entry 7032], the EC50 is below 500 nM.

For the compound `Cn1c(-c2ccccn2)c(C2CCCC2)c2ccc(C(=O)NC3(C(=O)Nc4ccc5[nH]ccc5c4)CCC3)cc21` [Entry 7077], the EC50 is below 500 nM.

Take `Cn1c(C(=O)O)cc2cc(NC(=O)C3(NC(=O)c4ccc5c(C6CCCC6)c(-c6nccs6)n(C)c5c4)CCC3)ccc21` [Entry 7008]: the EC50 is below 500 nM.

With `Cn1c(C(=O)O)cc2cc(NC(=O)C3(NC(=O)c4ccc5c(C6CCCC6)c(-c6cccc(N)n6)n(C)c5c4)CCC3)ccc21` [Entry 7027], the EC50 was below 500 nM.

Regarding `C/C(=C\c1ccc(NC(=O)C2(NC(=O)c3ccc4c(C5CCCC5)c(-c5cnccn5)n(C)c4c3)CCC2)cc1)C(=O)O` [Entry 7038], the EC50 is below 500 nM.

With `Cc1nc(-c2ccc(C(=O)O)s2)ccc1NC(=O)C1(NC(=O)c2ccc3c(C4CCCC4)c(-c4ccccn4)n(C)c3c2)CCC1` [Entry 7066], the EC50 is 500 to 5000 nM.

The same assay, now with this note: Hepatitis C virus, Huh-7, read-out: EC50 (number printed beside the class symbol), Table 6, cpd. 6101 only.
On to `CN1CCC(NC(=O)c2ccc3c(C4CCCC4)c(-c4nccs4)n(C)c3c2)(C(=O)Nc2ccc(/C=C/C(=O)O)cc2)CC1` [Entry 6101], for which the EC50 was determined as 165 nM.
